Assay results reported in paper PMC9911399, “Two distinct binding modes provide the RNA-binding protein RbFox with extraordinary sequence specificity”.
Substitutions are numbered along the chain they refer to; changes in the protein carry UniProt numbers. The list shows a part of the results.

T1: RBFOX1 RRM RbFoxmut (Fox-RRM*) (Homo sapiens, UniProt Q9NWB1 109-208, R118D;E147R;N151S;E152T)
T1 sequence: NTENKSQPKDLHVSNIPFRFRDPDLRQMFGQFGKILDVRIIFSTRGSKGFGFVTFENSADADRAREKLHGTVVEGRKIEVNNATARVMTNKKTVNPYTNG

B1: UGACCAA (DNA:RNA)
RNA: GGGAGACCGGAAUUCAGAUUGUCCUGACCAAUUAAAUCCCGUCGUAGCCACCA
DNA 1: CAATCTGAATTCCGGTCTCCC
DNA 2: TGGTGGCTACGACGGGATT
B2: UUGAUUG (DNA:RNA)
RNA: B1 RNA with G26U, A27G, C28A, C29U, A30U, A31G
DNA 1: CAATCTGAATTCCGGTCTCCC
DNA 2: TGGTGGCTACGACGGGATT
B3: CGUUUAA (DNA:RNA)
RNA: B1 RNA with U25C, A27U, C28U, C29U
DNA 1: CAATCTGAATTCCGGTCTCCC
DNA 2: TGGTGGCTACGACGGGATT
B4: AUAUCUC (DNA:RNA)
RNA: B1 RNA with U25A, G26U, C28U, A30U, A31C
DNA 1: CAATCTGAATTCCGGTCTCCC
DNA 2: TGGTGGCTACGACGGGATT
B5: CUCUCUU (DNA:RNA)
RNA: B1 RNA with U25C, G26U, A27C, C28U, A30U, A31U
DNA 1: CAATCTGAATTCCGGTCTCCC
DNA 2: TGGTGGCTACGACGGGATT
B6: UCACACG (DNA:RNA)
RNA: B1 RNA with G26C, C29A, A30C, A31G
DNA 1: CAATCTGAATTCCGGTCTCCC
DNA 2: TGGTGGCTACGACGGGATT
B7: UGUGUUA (DNA:RNA)
RNA: B1 RNA with A27U, C28G, C29U, A30U
DNA 1: CAATCTGAATTCCGGTCTCCC
DNA 2: TGGTGGCTACGACGGGATT
B8: UUAUAAG (DNA:RNA)
RNA: B1 RNA with G26U, C28U, C29A, A31G
DNA 1: CAATCTGAATTCCGGTCTCCC
DNA 2: TGGTGGCTACGACGGGATT
B9: GGGAACC (DNA:RNA)
RNA: B1 RNA with U25G, A27G, C28A, C29A, A30C, A31C
DNA 1: CAATCTGAATTCCGGTCTCCC
DNA 2: TGGTGGCTACGACGGGATT
B10: CCACACU (DNA:RNA)
RNA: B1 RNA with U25C, G26C, C29A, A30C, A31U
DNA 1: CAATCTGAATTCCGGTCTCCC
DNA 2: TGGTGGCTACGACGGGATT
B11: UCCUCGA (DNA:RNA)
RNA: B1 RNA with G26C, A27C, C28U, A30G
DNA 1: CAATCTGAATTCCGGTCTCCC
DNA 2: TGGTGGCTACGACGGGATT
B12: UGGCUUU (DNA:RNA)
RNA: B1 RNA with A27G, C29U, A30U, A31U
DNA 1: CAATCTGAATTCCGGTCTCCC
DNA 2: TGGTGGCTACGACGGGATT
B13: UACUCUC (DNA:RNA)
RNA: B1 RNA with G26A, A27C, C28U, A30U, A31C
DNA 1: CAATCTGAATTCCGGTCTCCC
DNA 2: TGGTGGCTACGACGGGATT
B14: CCACUGU (DNA:RNA)
RNA: B1 RNA with U25C, G26C, C29U, A30G, A31U
DNA 1: CAATCTGAATTCCGGTCTCCC
DNA 2: TGGTGGCTACGACGGGATT
B15: AUGUCCU (DNA:RNA)
RNA: B1 RNA with U25A, G26U, A27G, C28U, A30C, A31U
DNA 1: CAATCTGAATTCCGGTCTCCC
DNA 2: TGGTGGCTACGACGGGATT
B16: AUGUGAC (DNA:RNA)
RNA: B1 RNA with U25A, G26U, A27G, C28U, C29G, A31C
DNA 1: CAATCTGAATTCCGGTCTCCC
DNA 2: TGGTGGCTACGACGGGATT
B17: CUGGUGU (DNA:RNA)
RNA: GGGAGACCGGAAUUCAGAUUGUCCCUGGUGUUUAAAUCCCGUCGUAGCCACCA
DNA 1: CAATCTGAATTCCGGTCTCCC
DNA 2: TGGTGGCTACGACGGGATT
B18: ACCUACU (DNA:RNA)
RNA: B17 RNA with C25A, U26C, G27C, G28U, U29A, G30C
DNA 1: CAATCTGAATTCCGGTCTCCC
DNA 2: TGGTGGCTACGACGGGATT
B19: UCUGGAU (DNA:RNA)
RNA: B17 RNA with C25U, U26C, G27U, U29G, G30A
DNA 1: CAATCTGAATTCCGGTCTCCC
DNA 2: TGGTGGCTACGACGGGATT
B20: UGCCGGA (DNA:RNA)
RNA: B1 RNA with A27C, C29G, A30G
DNA 1: CAATCTGAATTCCGGTCTCCC
DNA 2: TGGTGGCTACGACGGGATT

molecular target: T1, RBFOX1 RRM RbFoxmut (Fox-RRM*); assay: EMSA; HiTS-Eq, 1 nM pool, 10 min; buffer printed only for the single-RNA assays: 10 mM Tris pH 7.5, 150 mM NaCl, 3.4 mM EDTA, 0.001% NP-40, 30 C; details: tags: His6 N-terminal (pET28a); label: 5' 32P
In short: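 Relative association constants, normalised to the cognate motif, were derived by comparing read counts of each RNA species with those of the control reaction. The RNA sequenced was the free fraction, separated by 8% native PAGE after a 10 min equilibration in 50 µL of 1 nM 5′-radiolabelled RNA (7 randomized nucleotides) with increasing concentrations of purified wild-type or mutant RbFox RRM.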

| Binder | binding signal |
| --- | --- |
| B1 | 0.0683 KA relative to UGCAUGU |
| B2 | 0.381 KA relative to UGCAUGU |
| B3 | 0.11 KA relative to UGCAUGU |
| B4 | 0.0603 KA relative to UGCAUGU |
| B5 | 0.045 KA relative to UGCAUGU |
| B6 | 0.11 KA relative to UGCAUGU |
| B7 | 0.154 KA relative to UGCAUGU |
| B8 | 0.11 KA relative to UGCAUGU |
| B9 | 0.152 KA relative to UGCAUGU |
| B10 | 0.102 KA relative to UGCAUGU |
| B11 | 0.105 KA relative to UGCAUGU |
| B12 | 0.0847 KA relative to UGCAUGU |
| B13 | 0.0515 KA relative to UGCAUGU |
| B14 | 0.105 KA relative to UGCAUGU |
| B15 | 0.0916 KA relative to UGCAUGU |
| B16 | 0.0982 KA relative to UGCAUGU |
| B17 | 0.127 KA relative to UGCAUGU |
| B18 | 0.0924 KA relative to UGCAUGU |
| B19 | 0.0456 KA relative to UGCAUGU |
| B20 | 0.0729 KA relative to UGCAUGU |
